Source: PubChem BioAssay AID1645882 (National Center for Advancing Translational Sciences (NCATS), 2021)
Screen size: about 16,000 compounds; about 120 (0.75%) were called active. About 4% were inconclusive and are not listed. The call rests on the fitted dose curve; in most records, active means well fitted inhibition curve with a large enough effect; inconclusive means small, poorly fitted or top-dose-only effect; inactive means no such curve, though single readings can be large or run the other way. Some of the results follow. Where a SMILES comes first, the peptide text is derived from it. [ ]: non-standard residue; d: D form.

Biological target: Rap guanine nucleotide exchange factor 3 (Homo sapiens) (UniProt O95398)
Sequence of UniProt O95398 (O95398 whole entry, looked up): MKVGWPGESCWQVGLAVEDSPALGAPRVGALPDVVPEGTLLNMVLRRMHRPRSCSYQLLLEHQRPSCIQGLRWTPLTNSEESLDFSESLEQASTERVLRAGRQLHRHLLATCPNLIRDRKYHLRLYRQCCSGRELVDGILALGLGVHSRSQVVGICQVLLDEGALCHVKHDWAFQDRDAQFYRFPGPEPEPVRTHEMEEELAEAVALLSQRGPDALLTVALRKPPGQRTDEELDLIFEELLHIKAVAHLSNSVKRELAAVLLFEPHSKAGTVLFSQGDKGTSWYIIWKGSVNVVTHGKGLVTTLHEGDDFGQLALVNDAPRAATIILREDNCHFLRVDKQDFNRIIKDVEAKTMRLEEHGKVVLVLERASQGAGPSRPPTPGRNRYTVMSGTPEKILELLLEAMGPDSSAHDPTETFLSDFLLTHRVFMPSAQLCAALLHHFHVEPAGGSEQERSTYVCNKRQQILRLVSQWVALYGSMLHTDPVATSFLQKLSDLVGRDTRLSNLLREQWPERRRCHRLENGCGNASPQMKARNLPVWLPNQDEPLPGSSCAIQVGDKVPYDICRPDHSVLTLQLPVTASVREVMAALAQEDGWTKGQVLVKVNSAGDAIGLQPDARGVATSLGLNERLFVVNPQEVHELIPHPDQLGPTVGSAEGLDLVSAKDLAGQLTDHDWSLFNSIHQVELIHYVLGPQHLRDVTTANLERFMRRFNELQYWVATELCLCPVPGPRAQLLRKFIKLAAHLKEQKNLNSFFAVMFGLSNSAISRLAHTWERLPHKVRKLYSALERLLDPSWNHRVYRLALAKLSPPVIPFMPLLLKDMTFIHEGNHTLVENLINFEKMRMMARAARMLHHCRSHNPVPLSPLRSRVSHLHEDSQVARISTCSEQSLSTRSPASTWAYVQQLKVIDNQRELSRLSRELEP
Experiment: Validation qHTS for antagonist of cAMP-regulated guanine nucleotide exchange factor 3 (EPAC1);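 further: plate controls were DMSO for no effect and ATA control for full effect; nearly all actives have a fitted effect of over 75% in size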
Conditions: EPAC1 Rap1B-BODIPY-GDP exchange, fluorescence; series mostly up to 150 µM; activity change, negative = inhibition: at the top concentration
How it was run: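 Nucleotide exchange followed as fluorescence loss when BODIPY-GDP leaves Rap1B (480 nm excitation, 540 nm emission), read at 5 min intervals over 30 min. Reaction: 100 nM EPAC1, 250 nM RAP1B-BODIPY-GDP, 50 uM GDP; ATA and DMSO define normalization.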

Activity change, negative = inhibition, inactive:
Cn1cccc1C(=O)N1CCC2(CCCN(Cc3ccccc3)C2)CC1 -20.4%
CCOc1ccc(Cc2nccc3cc(OCC)c(OCC)cc23)cc1OCC -5.54% [at 75.8 µM]
COCc1ccc(CN2CCOc3c(cc(-c4ccc(SC)cc4)cc3OC)C2)o1 -17.1%
O=C(O)C(Oc1ccc2ccc(=O)oc2c1)c1ccccc1 (stereo not given) 12%
NCCCCC(N)C(=O)NC(Cc1ccc(O)cc1)C(=O)NC(CCCCN)C(=O)O (stereo not drawn) (H-Lys-Tyr-Lys-OH; configuration not given here) -2.41%
Fc1ccc(Nc2nc(-c3cccnc3)nc3ccccc23)cc1 9.33%
C#C[C@]1(O)CC[C@H]2[C@@H]3CCC4=Cc5oncc5C[C@]4(C)[C@H]3CC[C@@]21C 8.68%
O=C(NC[C@H](O)c1ccccc1)c1ccccc1 -5.24%
COc1ccccc1N1CCN(c2nc(CNC(=O)c3ccc(C)c(C)c3)nc3ccccc23)CC1 2.89%
COc1ccc(CNc2ncnc3ccc(-c4ccoc4)cc23)c(OC)c1 3.88%
CS(C)(=O)=O 6.26%
CC(=O)SCC(CC(=O)c1ccc(C)cc1)C(=O)O (stereo not given) 33.1%
N#Cc1cccc(NC(=O)N2CCCC3(CCN(C(=O)c4cnccn4)CC3)C2)c1 15.7%
CCNc1ncc2nc(C)c(=O)n(C)c2n1 15.3%
CCOC(=O)[C@@H](C)NS(=O)(=O)N(Cc1ccccc1)[C@H](C(=O)OC)C(C)C 0.502%
CS(=O)(=O)OCCCNCCCOS(C)(=O)=O 27.9%
COC(=O)N1CCC2(CCN(Cc3ccccc3OC)CC2)CC1 16.2%
COc1ccc(-c2cc(=O)c3c(OC)c(OC)c(OC)c(OC)c3o2)cc1 -2.36%
O=C(c1ccc(F)c(F)c1)N1CCOc2ccc(CN3CCN(Cc4ccccn4)CC3)cc2C1 5.86%
O=C(NCCc1ccccc1)[C@@H]1CC=C[C@@H]2CCN(Cc3ccccc3)C(=O)[C@@H]21 1.38%
OCCO[C@@H]1[C@@H](O)[C@H](O)[C@@H](CO)O[C@@H]1O 13.7%
CSCC[C@H](C=O)NC(=O)[C@H](CC(C)C)NC(=O)[C@H](CC(C)C)NC(C)=O (Ac-Leu-Leu-[dM]-aldehyde) 12.8%
COc1cc(-c2c(OC)cccc2OC)cc2c1OCCN(C(=O)CCn1nc(C)cc1C)C2 12.7%
CCCCCCCC[N+](C)(C)CCCCCCCC
Cc1c(C(=O)N2CCN(C(C)C)CC2)sc2ncnc(NCc3ccco3)c12 24.4%
COc1ccc(C(=O)N2CCC3(CC2)CCN(c2ccncc2)CC3)cc1 19%
COc1cccc(-c2cc(NCc3cccc(C)c3)ncn2)c1 -10.4%
CCCOC(=O)C1=C(C)CS[C@@H]2[C@H](NC(=O)COc3ccccc3)C(=O)N12 -10.5%
COc1ccc2ccccc2c1CN1CCc2nnc(CNC(=O)c3cccc(F)c3)n2CC1 6.59%
CC(=O)N1CCC[C@@]2(CCN(c3ncccn3)C2)C1 13.3%
CC12CC3CC(C)(C1)CC(N)(C3)C2
Cc1ccccc1-c1nc(N2CCOCC2)c2ccccc2n1 11.9%
COc1ccc(-c2nc3cnc(N4CCN(C)CC4)nc3n(Cc3ccc(F)cc3)c2=O)cc1 25.1%
Cc1cnc(CNc2ccnc(-c3cccc(NS(C)(=O)=O)c3)n2)cn1 -5.49%
COc1ccc(CCN(C)CCCOc2ccc(S(=O)(=O)c3[nH]c4ccccc4c3C(C)C)cc2)cc1OC -24.8%
CC(C)=CCc1c(O)cc2oc(C)cc(=O)c2c1O 8.94%
COc1cccc(Cn2c(=O)c(-c3cccc(C#N)c3)nc3cnc(Nc4ccccc4)nc32)c1 97.8%
O=C(Nc1ccccc1)N1CCC2(CC1)CCN(C(=O)c1cnccn1)CC2 20.5%
c1ccc2ccccc2c1 9.76%
O=C(O)c1cc2cc(F)ccc2[nH]1
CN1CCN(c2ncc3nc(-c4cccs4)c(=O)n(-c4ccccc4)c3n2)CC1 35.1%
O=c1c(-c2cccc(Cl)c2)nc2cncnc2n1Cc1ccccc1 10.5%
CC(=O)NCCNc1ncncc1-c1ccccc1C 0.413%
CCOC(=O)C[C@H]1c2ccccc2S(=O)(=O)N1Cc1ccc(Cl)cc1 1.27%
COCCn1c(=O)c(CCc2ccccc2)nc2cnc(N3CCNCC3)nc21 26.7%
CN1[C@H](CC(=O)c2ccccc2)CCC[C@H]1C[C@H](O)c1ccccc1 7.89%
O=C(c1ccc(OCCCc2cnc[nH]2)cc1)C1CC1 10.7% [at 75.8 µM]
C[C@]12CCC(=O)C=C1CCC1C2C(O)C[C@]2(C)C1CC[C@]2(O)C(=O)CO (stereo not given in full) 8.45%
CC(=O)OC1CCC2(C)C3=C(CCC2C1(C)C)[C@@]1(C)CCC(C(C)CCC=C(C)C)[C@@]1(C)CC3 (stereo not given in full) -0.323%
FC(F)(F)c1ccccc1-c1nccc(NCc2ccccc2)n1 1.73%
COCCn1c(=O)c(-c2cccs2)nc2cnc(Oc3ccc(OC)cc3)nc21 -1.4%
Cc1nc2cc(NC(=O)[C@@H]3C[C@@H](Sc4ccccn4)CN3Cc3ccc4c(c3)OCCO4)ccc2s1 -2.6%
CC(=O)OCC1=C(C(=O)O)N2C(=O)[C@@H](NC(=O)Cc3ccccc3)[C@H]2SC1 16.2%
CCN1CCCC1CNC(=O)c1cc(S(N)(=O)=O)ccc1OC (stereo not given)
C[N+]1(CC(=O)c2ccccc2)CCc2ccccc2C1 (stereo not given) 14.5%
CC(=O)OC1CCC2(C)C(CCC3(C)C2C(=O)C=C2C4CC(C)(C(=O)OCCN5CCCCC5)CCC4(C)CCC23C)C1(C)C (stereo not given) 7.76%
COc1ccc(-c2ccc3cc(C(=O)O)ccc3c2)cc1C12CC3CC(CC(C3)C1)C2 16.6%
O=C(O)/C=C/C(=O)Nc1ccc(S(=O)(=O)Nc2nccs2)cc1 11%
COc1c2c(nc3occc13)C(CC=C(C)C)(OC)C(=O)C=C2 (stereo not given) 15.2%
COc1ccc(-n2c(=O)cnc3cnc(N4CCN(C)CC4)nc32)cc1 2.73%
C=C[C@@H]1c2ccccc2N(S(=O)(=O)c2ccc(C)cc2)[C@H](c2ccc(OC(C)=O)cc2)C1(C#N)C#N 10.2%
CCCCCC(=O)O[C@H](CC(=O)O)C[N+](C)(C)C -6.89%
Cc1cccc(-c2cc(=O)c3cc(Br)ccc3o2)c1 6.76%
O=S(=O)(O)c1ccc(Nc2ncnc3c2ncn3[C@@H]2O[C@H](CO)[C@@H](O)[C@H]2O)cc1 35.3%
O=c1[nH]c(=O)n([C@H]2C[C@H](O)[C@@H](CO)O2)cc1I 12.7% [at 75.8 µM]
CCCCc1cc2c(=O)c(C(=O)OC)c[nH]c2cc1OCc1ccccc1 -11.2%
CCCCC/C=C\C/C=C\CCCCCCCC(=O)O 21.6% [at 15.3 µM]
Cc1cccc(N(C)C(=S)Oc2ccc3ccccc3c2)c1
CC1(C)SC2C(NC(=O)C(N)c3ccccc3)C(=O)N2C1C(=O)O (stereo not given) -15.7%
CC(C)N1C[C@@H](NCc2ccccc2O)C[C@H]1C(=O)N1CCN(c2cccc(C(F)(F)F)c2)CC1 14.9%
C=CCNC1=C2C[C@@H](C)C[C@H](OC)[C@H](O)[C@@H](C)/C=C(\C)[C@H](OC(N)=O)[C@@H](OC)/C=C\C=C(/C)C(=O)NC(=CC1=O)C2=O -1.13%
Cc1cc(=O)cc2oc3cc(N)c(-c4c(C)cc(O)cc4O)c(C)c3nc1-2 -25.8%
O=S1(=O)CCO[C@H]2Cc3ccccc3[C@H]2N1Cc1cccc(F)c1 8.13%
N[C@@H](COP(=O)(O)O)C(=O)O
COc1cccc(Cn2c(=O)cnc3cnc(OC)nc32)c1 5.31%
O=C(O)c1cccnc1 11.7%
CN1CCN(C2=Nc3ccccc3Cc3ccccc32)CC1 21%
CC(C)(C)c1nnc(NS(=O)(=O)c2ccccc2)s1 18%
CCOC(=O)C[n+]1cccc(Br)c1 10.8%
Cn1c(=O)c(-c2cc(F)cc(F)c2)nc2cncnc21 16%
Cc1cc(=O)c(C(=O)N[C@@H](C(=O)N[C@@H]2C(=O)N3C(C(=O)O)=C(CSc4nnnn4C)CS[C@H]23)c2ccc(O)cc2)c[nH]1 -2.71%
CC(C)[C@H]1COCCS(=O)(=O)N1Cc1cccc(Cl)c1 -12.5%
CCCCc1oc2ccccc2c1C(=O)c1cc(I)c(OCCN(CC)CC)c(I)c1
CN(Cc1cnc2nc(N)nc(N)c2n1)c1ccc(C(=O)NC(CCC(=O)O)C(=O)O)cc1 (stereo not given) 13.6%
CC1=CC(=O)OC1Cc1ccc2ccccc2n1 (stereo not given) 1.86%
Cc1cnc(CNc2cc(-c3ccccc3C)ncn2)cn1 3.14%
Cn1cccc1C(=O)N1CCC2(CCN(Cc3ccc(C#N)cc3)CC2)CC1 -1.33%
COCC(=O)N1CCC2(CC1)CN(c1cccc(-c3ccccc3)c1)C2 27.6%
c1cncc(CNc2ccnc(-c3cccnc3)n2)c1 19%
COc1ncc2nc(CCc3ccccc3)c(=O)n(C3CC3)c2n1 6.78%
Cc1ccccc1-c1ccc2ncnc(N(C)Cc3ccco3)c2c1 -6.84%
CC(=O)OCC(=O)[C@@]1(O)CCC2C3CCC4=CC(=O)CC[C@@]4(C)[C@]3(F)C(O)C[C@]21C (stereo not given in full) 9.82%
C/C(Nc1ccc2oc(=O)ccc2c1)=C1/C(=O)CC2[C@@H]1C2(C)C (stereo not given in full) 15.1%
COc1cc(=O)n2c(c1C(=O)NC(C)c1ccco1)CCN(Cc1cc3ccccc3o1)CC2 (stereo not given) 11.9%
O=C1N=C(O)CN1/N=C/c1ccc(-c2ccc([N+](=O)[O-])cc2)o1
Cn1c(=O)c(-c2ccccc2)nc2cnc(N3CCNCC3)nc21 17.2%
COc1cc(=O)n2c(c1C(=O)N(C)Cc1cscn1)CCN(C(=O)c1ccc(C)c(C)c1)CC2 2.54%
Cc1[nH]c(C)c(Cl)c(=O)c1Cl 9.53%
CN1CCC2(CC1)CCN(C(=O)c1cc(C(F)(F)F)cc(C(F)(F)F)c1)CC2 0.273%
CNCC(=O)N[C@@H](CCCN=C(N)N)C(=O)N[C@H](C(=O)N[C@@H](Cc1ccc(O)cc1)C(=O)N[C@H](C(=O)N[C@@H](Cc1cnc[nH]1)C(=O)N1CCC[C@H]1C(=O)N[C@@H](C)C(=O)O)C(C)C)C(C)C 10.4%
